Data taken from PubChem BioAssay (Tox21).
“And” between values parts separate entries of the source, which are not always exact repeats. Identical values can stand only once. The shares of active, inactive and inconclusive entries below differ from those in the screen. For some assays here: Where the call is inconclusive, the potency comes from a doubtful curve fit. The source made the active and inactive calls. Unless noted, calls follow the shape of the dose curve; as a rule, active = well fitted curve in the direction sought with a large enough effect in the repeat runs; inconclusive = weak or mixed curves; inactive = no such curve, though single readings can be large; an effect the other way counts as inactive or inconclusive.

Legend:
[1] = qHTS assay to identify small molecule antagonists of the androgen receptor (AR) signaling pathway using the MDA cell line in the presence of 0.5 nM R1881 - cell viability counter screen (AID 1259242); also: potency is read from the fitted curve at half-maximal effect; nearly all actives have a fitted effect of over 45% in size
Method in brief: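 Live-cell protease fluorescence, CellTiter-Fluor, 30 min at 37C. Cells: MDA-kb2, 3,000/well, preincubated 5 hr. Compounds plus 0.5 nM R1881 final, 16 hr, 37C, 0% CO2.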

[2] = qHTS assay to identify small molecule agonists of the sonic hedgehog signaling (Shh) pathway - cell viability counter screen (AID 1259366); also: nearly all actives have a fitted effect of over 50% in size; also: potency is read from the fitted curve at half-maximal effect
Method in brief: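 Same-well cytotoxicity read. Gli1-Luc reporter 3T3 cells; compounds 24hr, 37C/5% CO2; CellTiter-Fluor fluorescence.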

[3] = qHTS assay to identify small molecule antagonists of the sonic hedgehog signaling (Shh) pathway (AID 1259369; calls by dose curve; also: potency is read from the fitted curve at half-maximal effect; nearly all actives have a fitted effect of over 45% in size)
Method in brief: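 Luminescence readout: firefly Luc under Gli1 response element in 3T3Gli1-Luc cells (NIH/3T3 clone). Antagonist mode, stimulation by conditioned medium; compound exposure 24hr at 37 C, 5% CO2.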

[4] = biological target: Estrogen receptor beta (Homo sapiens) (UniProt Q92731); experiment: qHTS assay to identify small molecule antagonists of the estrogen receptor beta (ER-beta) signaling pathway (AID 1259378; active = well fitted inhibition curve with a large enough effect in the signal ratio in the repeat runs, not every such curve was filed as active; inconclusive = weak or mixed curves, or effect the other way; inactive = no such curve, though single readings can be large or run the other way; the % refers to the signal ratio; also: potency is read from the fitted curve at half-maximal effect); conditions: ER-beta-UAS-bla HEK293T, beta-lactamase FRET ratio, 16 h; activity, negative = inhibition: at 92.4 µM (top of the series) unless noted
Method in brief: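 Antagonist mode: compounds added to beta-lactamase reporter HEK293T ER-beta-UAS cells stimulated with E2 (1nM final), 16 hr at 37C. LiveBLAzer B/G FRET substrate, 2 hours room temperature, fluorescence read-out.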

[5] = qHTS assay to identify small molecule agonists of the estrogen receptor beta (ER-beta) signaling pathway - cell viability counter screen (AID 1259380); also: potency is read from the fitted curve at half-maximal effect; nearly all actives have a fitted effect of over 30% in size
Method in brief: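 Luminescence read-out (CellTiter-Glo, 30 min, room temp) taken in the same wells as the beta-lactamase reporter assay; ER-beta-UAS-bla HEK293T cells exposed to DMSO-dissolved compounds for 16 hr at 37C in 2% charcoal-stripped FBS medium.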

[6] = biological target: Thyrotropin receptor (Homo sapiens) (UniProt P16473); experiment: qHTS assay to identify small molecule antagonists of the thyroid stimulating hormone receptor (TSHR) signaling pathway (AID 1259385; calls by dose curve; also: nearly all actives have a fitted effect of over 20% in size; also: potency is read from the fitted curve at half-maximal effect; as to activity change, negative = inhibition: % is scaled to controls: 0 for no effect and ±100 for the full control effect); conditions: TSHR-HEK293 cAMP HTRF, TSH-stimulated antagonist mode; activity change, negative = inhibition: at 92.4 µM (top of the series) unless noted
Method in brief: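 Antagonist mode: compound-treated TSHR-expressing HEK293 cells were stimulated with 1.5 ng/mL TSH (final) in presence of Ro20-1724 for 30 min at RT. HTRF cAMP detection after 1 h; each compound tested at 15 concentrations, triplicate.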

[7] = qHTS assay to identify small molecule agonists of the estrogen receptor alpha (ER-alpha) signaling pathway in the presence of an antagonist - cell viability counter screen (AID 1259386);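 also: potency is read from the fitted curve at half-maximal effect; cells exposed to compounds for 22 h at 37 °C before the viability read; nearly all actives have a fitted effect of over 30% in size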
Method in brief: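 Read-out: CellTiter-Fluor fluorescence after 1hr reagent incubation, measured in the same wells as the luciferase readout. VM7Luc4E2 cells were exposed to 15 compound concentrations with 10.0nM ICI-182,780 for 22hr at 37C.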

[8] = qHTS assay to identify small molecule HDAC inhibitors - cell viability counter screen (AID 1259365); also: potency is read from the fitted curve at half-maximal effect; nearly all actives have a fitted effect of over 50% in size
Method in brief: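 After overnight seeding at 1,500 cells per well, wild-type HCT-116 cultures took up compounds in DMSO for 2hr at 37 C. Viable cell content came from luminescence with CellTiter-Glo.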

[9] = qHTS assay to identify small molecule antagonists of the sonic hedgehog signaling (Shh) pathway - cell viability counter screen (AID 1259367); also: potency is read from the fitted curve at half-maximal effect; nearly all actives have a fitted effect of over 55% in size
Method in brief: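 Viability was read by CellTiter-Fluor fluorescence in the same wells, reagent added 23 hr into compound treatment and incubated 1 hr at 37C. The 3T3 Gli1-Luc reporter cells (2,000/well) received conditioned medium after compound and ran 24 hr.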

[10] = qHTS assay to identify small molecule agonists of the androgen receptor (AR) signaling pathway in the presence of an antagonist - cell viability counter screen (AID 1259379); also: potency is read from the fitted curve at half-maximal effect; nearly all actives have a fitted effect of over 25% in size
Method in brief: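 Viability counter screen: CellTiter-Fluor fluorescence, measured in the same wells as the luciferase read-out. MDA-kb2 cells, 3,000/well, with nilutamide at 3.0uM final and compounds at 15 concentrations, 16 hr at 37C, 0% CO2.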

[11] = qHTS assay to identify small molecule antagonists of the estrogen receptor beta (ER-beta) signaling pathway - cell viability counter screen (AID 1259382); also: potency is read from the fitted curve at half-maximal effect; nearly all actives have a fitted effect of over 55% in size
Method in brief: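 Luminescent ATP read-out (CellTiter-Glo, 30 min, RT) taken in the same wells as the bla reporter assay. HEK293T ER-beta-UAS-bla cells in 2% charcoal-stripped FBS were exposed to compounds with 1nM E2 for 16 hr at 37C.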

[12] = biological target: Estrogen receptor beta (Homo sapiens) (UniProt Q92731); experiment: qHTS assay to identify small molecule agonists of the estrogen receptor beta (ER-beta) signaling pathway (AID 1259377; active = well fitted activation curve with a large enough effect in the signal ratio in the repeat runs, not every such curve was filed as active; inconclusive = weak or mixed curves, or effect the other way; the % refers to the signal ratio; also: potency is read from the fitted curve at half-maximal effect); conditions: ER-beta-UAS-bla HEK293T, beta-lactamase FRET ratio, 16 h; activation: at 92.4 µM (top of the series) unless noted
Method in brief: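 Read-out: beta-lactamase FRET fluorescence. Cell line: ER-beta-UAS-bla HEK293T in 2% charcoal-stripped FBS. Exposure: 16 hr at 37C. Substrate step: 2 h at room temperature.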

[13] = qHTS assay to identify small molecule agonists of the sonic hedgehog signaling (Shh) pathway (AID 1259368; calls by dose curve;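 also: NIH/3T3-derived 3T3Gli1-Luc cells carrying a stable Gli1-driven firefly luciferase reporter; % is scaled to controls: 0 for no effect and ±100 for the full control effect; nearly all actives have a fitted effect of over 15% in size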)
Method in brief: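 Read-out: firefly luciferase luminescence from a Gli1 response element reporter stably integrated in NIH/3T3-derived 3T3Gli1-Luc cells, measured 30 min at room temperature after reagent addition. Compound exposure lasted 24 hr at 37 C, 5% CO2.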
Tags tell the direction and shape of the fitted curve or compound fluorescence and quenching.

Chain of UniProt Q92731 (Q92731 whole entry, looked up): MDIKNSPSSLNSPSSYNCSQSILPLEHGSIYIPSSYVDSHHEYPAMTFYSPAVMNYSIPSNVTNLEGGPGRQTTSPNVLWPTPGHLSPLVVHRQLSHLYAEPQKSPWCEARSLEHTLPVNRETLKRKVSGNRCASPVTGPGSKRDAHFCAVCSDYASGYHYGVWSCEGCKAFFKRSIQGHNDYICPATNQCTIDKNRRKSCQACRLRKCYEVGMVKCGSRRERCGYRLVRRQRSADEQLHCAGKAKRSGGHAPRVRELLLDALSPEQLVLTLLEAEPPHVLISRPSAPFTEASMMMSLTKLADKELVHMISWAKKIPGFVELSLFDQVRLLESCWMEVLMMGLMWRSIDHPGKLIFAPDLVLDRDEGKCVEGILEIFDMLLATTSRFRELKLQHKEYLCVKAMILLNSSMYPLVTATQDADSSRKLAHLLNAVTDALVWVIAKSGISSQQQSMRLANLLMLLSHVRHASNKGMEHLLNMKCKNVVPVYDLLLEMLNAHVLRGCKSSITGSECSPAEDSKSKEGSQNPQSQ
Chain of UniProt P16473 (P16473 whole entry, looked up): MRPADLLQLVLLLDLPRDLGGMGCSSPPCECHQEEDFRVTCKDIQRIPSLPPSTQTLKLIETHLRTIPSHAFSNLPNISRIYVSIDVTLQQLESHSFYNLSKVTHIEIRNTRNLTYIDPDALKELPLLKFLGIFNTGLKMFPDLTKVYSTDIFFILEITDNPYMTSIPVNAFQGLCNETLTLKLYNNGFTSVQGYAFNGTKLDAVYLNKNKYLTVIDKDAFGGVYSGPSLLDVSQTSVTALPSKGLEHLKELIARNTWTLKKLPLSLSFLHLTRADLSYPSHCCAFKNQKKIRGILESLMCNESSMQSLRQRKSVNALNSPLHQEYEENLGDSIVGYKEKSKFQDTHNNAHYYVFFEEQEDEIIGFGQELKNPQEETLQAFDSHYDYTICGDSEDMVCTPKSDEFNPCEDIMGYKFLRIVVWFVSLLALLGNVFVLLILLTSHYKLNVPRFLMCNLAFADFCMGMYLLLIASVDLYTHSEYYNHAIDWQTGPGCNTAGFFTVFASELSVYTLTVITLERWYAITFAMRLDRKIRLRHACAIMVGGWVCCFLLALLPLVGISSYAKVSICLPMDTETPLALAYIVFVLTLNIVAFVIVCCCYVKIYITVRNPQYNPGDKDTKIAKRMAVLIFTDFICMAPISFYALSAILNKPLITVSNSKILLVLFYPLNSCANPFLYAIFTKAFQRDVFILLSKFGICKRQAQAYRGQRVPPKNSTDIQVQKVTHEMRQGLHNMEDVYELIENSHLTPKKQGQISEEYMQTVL

With CCc1cc(SCc2sc(-c3ccc(C(F)(F)F)cc3)nc2CN2CCN(c3ccc(OC)cc3)CC2)ccc1OCC(=O)O the Potency [1] was inconclusive: 61.1 µM [cytotoxic, partial curve, poor fit], the Potency [2] was inconclusive: 61.1 µM [cytotoxic, partial curve] and the Potency [3] was inconclusive: 15.4 µM [inhibitor, full curve]. For the same molecule, the Potency [4] was active: 5.45 µM, the Potency [5] was active: 4.33 µM and the Potency [6] was inconclusive: 61.1 µM [falling, single point]. For the same molecule, the Potency [7] was inconclusive: 61.1 µM [cytotoxic, partial curve, poor fit].
In the case of Cc1cc(O)c(C(C)(C)C)cc1C(C)(C)C, the Potency [1] is reported as inconclusive: 68.6 µM [cytotoxic, single point], the Potency [8] is reported as inconclusive: 54.5 µM [cytotoxic, partial curve] and the Potency [9] is reported as active: 61.1 µM. For the same molecule, the Potency [4] was inconclusive: 77 µM [cytotoxic, single point], the Potency [10] was inconclusive: 68.6 µM [cytotoxic, single point] and the Potency [5] was active: 54.5 µM. The Potency [11] was active: 61.1 µM and the Potency [7] was inconclusive: 77 µM [cytotoxic, single point].
For CCCCCC(=O)O[C@]1(C(C)=O)CC[C@H]2[C@@H]3CCC4=CC(=O)CC[C@]4(C)[C@H]3CC[C@@]21C, the Potency [1] was active: 43 µM and inconclusive: 33.5 µM [cytotoxic, single point], the Potency [2] was inconclusive: 68.1 µM [cytotoxic, single point] and inactive and the Potency [3] was inconclusive: 30.4 µM [inhibitor, full curve, poor fit] and inconclusive: 33.5 µM [inhibitor, single point]. For the same molecule, the Potency [12] was inconclusive: 38.3 µM [rising, partial curve], the Potency [5] was inconclusive: 38.3 µM [cytotoxic, partial curve, poor fit] and the Potency [7] was inconclusive: 76.4 µM [cytotoxic, single point].
With CCCN(CCC)c1c([N+](=O)[O-])cc(C(F)(F)F)c(N)c1[N+](=O)[O-] the Potency [1] was active: 60.9 µM, the Potency [8] was active: 60.9 µM and the Potency [2] was active: 48.4 µM. The Potency [12] was inconclusive: 43.1 µM [cytotoxic, partial curve], the Potency [4] was inconclusive: 68.4 µM [cytotoxic, single point] and the Potency [6] was inconclusive: 68.4 µM [falling, single point].
In the case of CC/C(=C(/c1ccc(O)cc1)c1ccc(OCCN(C)C)cc1)c1ccccc1, the Potency [1] is reported as active: 40.3 µM, the Potency [8] is reported as inconclusive: 35.9 µM [cytotoxic, partial curve, poor fit] and the Potency [5] is reported as active: 32 µM. The Potency [7] was inconclusive: 45.2 µM [cytotoxic].
With NC(=O)n1c(O)c(C(=O)c2cccs2)c2cc(Cl)ccc21 the Potency [1] was inconclusive: 26.6 µM [cytotoxic, partial curve], the Potency [2] was inconclusive: 11.9 µM [cytotoxic, partial curve] and the Potency [9] was inconclusive: 21.1 µM [cytotoxic, partial curve]. The Potency [3] was active: 10.6 µM, the Potency [12] was inconclusive: 10.6 µM [rising, full curve] and the Potency [4] was inconclusive: 23.7 µM [rising, partial curve]. The Potency [5] was inconclusive: 7.5 µM [cytotoxic, single point] and the Potency [6] was “inactive”.
For CCN=c1cc2oc3cc(NCC)c(C)cc3c(-c3ccccc3C(=O)OCC)c-2cc1C, the Potency [1] was active: 965 nM and active: 864 nM, the Potency [8] was inconclusive: 54.3 µM [cytotoxic] and inconclusive: 27.3 µM [cytotoxic, partial curve, poor fit] and the Potency [2] was inconclusive: 48.4 µM [rising, partial curve] and inconclusive: 30.6 µM [rising, partial curve]. The Potency [13] was “inactive”, the Potency [3] was active: 1.08 µM and active: 545 nM and the Potency [12] was inconclusive: 68.3 µM [rising, single point]. For the same molecule, the Potency [4] was active: 272 nM and inconclusive: 273 nM [inhibitor, full curve], the Potency [5] was active: 54.3 µM and active: 24.3 µM and the Potency [11] was active: 54.3 µM and active: 34.4 µM. For the same molecule, the activity change, negative = inhibition [6] was inconclusive: -11.8% and inconclusive: -14% and the Potency [7] was active: 9.65 µM and active: 9.69 µM.
In the case of CN1CCN(c2ccccc2/C=C2\SCCN(c3ccc(Cl)c(Cl)c3)C2=O)CC1, the Potency [1] is reported as active: 48.6 µM, the Potency [8] is reported as inconclusive: 68.6 µM [cytotoxic, partial curve, poor fit] and the Potency [2] is reported as active: 27.3 µM. For the same molecule, the Potency [12] was inconclusive: 68.6 µM [cytotoxic, single point], the Potency [4] was inconclusive: 77 µM [cytotoxic, single point] and the Potency [6] was inconclusive: 68.6 µM [falling, single point].
